Among the data in paper PMC6212790 are binding signal values, retold here.

The other results are listed elsewhere or left out. At the low end of the ranking the order means little.

This assay deals with T1, GST-Rok (full length) (UniProt O34857).
T1 sequence: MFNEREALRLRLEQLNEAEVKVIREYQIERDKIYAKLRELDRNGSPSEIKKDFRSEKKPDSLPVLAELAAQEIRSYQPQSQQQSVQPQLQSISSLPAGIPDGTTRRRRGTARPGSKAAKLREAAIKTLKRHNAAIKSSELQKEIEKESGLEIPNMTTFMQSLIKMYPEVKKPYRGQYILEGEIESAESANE
In words: protein binding microarray.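 Further: rank score from −0.5 (least bound) to 0.5 (best bound).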 The settings on record: Rok is a gene silencer of Bacillus subtilis; high values mean tight binding; most listed sequences are background and not binding sites; double strand, one strand shown.
Regarding GGCTGCTA, the binding signal is -0.14 E-score.

In turn, CAACAGCC displayed a binding signal of -0.16 E-score.

Regarding ACGTAGCG, the binding signal was found to be 0.103 E-score.

GTGGTCGA gave a binding signal of -0.148 E-score.

In the case of CCTCTAGA, the binding signal is -0.115 E-score.

GGAATGGA showed a binding signal of -0.184 E-score.

CTCCGATA came in with a binding signal of -0.0935 E-score.

Turning to TACTAGTA, the binding signal came to 0.45 E-score.

In the case of ATATGAGC, the binding signal was -0.0205 E-score.

As for AACCTATC, the binding signal is 0.193 E-score.

Sequence ACACCTAC gave a binding signal of 0.145 E-score.

Consider CTGGCGGA, for which the binding signal was -0.282 E-score.

ACCACACG showed a binding signal of 0.19 E-score.

For GGGATGCA, the binding signal was -0.178 E-score.

With CACGGGGC, the binding signal is -0.282 E-score.

Take TGAGGCAA: the binding signal is -0.209 E-score.

For CATGACGA, the binding signal was 0.0373 E-score.

On to TCCAAGGA, for which the binding signal was 0.097 E-score.

GCCCAAGC: the binding signal was -0.322 E-score.

CGACTACC showed a binding signal of -0.0406 E-score.

As to CGCGGAGA, the binding signal was -0.139 E-score.

In turn, CTTCCTAC showed a binding signal of 0.107 E-score.

As for GCTATGTA, the binding signal turned out to be 0.14 E-score.

Sequence CGCGCGAA registered a binding signal of 0.0414 E-score.

Take GCTGTAGA: the binding signal turned out to be 0.0153 E-score.

As to CGTACTTA, the binding signal was found to be 0.264 E-score.

GATCCCGA yielded a binding signal of 0.0608 E-score.

Sequence AGGATCAC displayed a binding signal of -0.0581 E-score.

CTTTAAGC had a binding signal of -0.155 E-score.

As for AGTCTAAC, the binding signal worked out at 0.0131 E-score.

Turning to GCGTTAGA, the binding signal was -0.0102 E-score.

Take GCAATATA: the binding signal was 0.281 E-score.

In turn, CAGAGCTC returned a binding signal of -0.162 E-score.

As for ATACCGTA, the binding signal was found to be 0.275 E-score.

GTCATCTA returned a binding signal of 0.113 E-score.

Consider AGACGGAA, for which the binding signal is -0.257 E-score.

In the case of ACTGCTAG, the binding signal was -0.0701 E-score.

In turn, ACGGTCCC returned a binding signal of -0.37 E-score.

As to CAACGCAG, the binding signal is -0.0825 E-score.

For the sequence CTCATGAG, the binding signal was -0.152 E-score.

The sequence AGAGGATA registered a binding signal of 0.127 E-score.

Sequence CCGGCCAC gave a binding signal of -0.248 E-score.

AGGCTCCC had a binding signal of -0.396 E-score.

ACAGGGCG: the binding signal was -0.298 E-score.

Sequence AAATTTAG showed a binding signal of 0.163 E-score.

AATGGTTC: the binding signal was -0.113 E-score.

Sequence ACATAAAG gave a binding signal of -0.139 E-score.

Turning to CGCTAGTC, the binding signal is -0.0204 E-score.

ACTGAGCA yielded a binding signal of -0.062 E-score.

Sequence ATACCATG returned a binding signal of 0.277 E-score.

Consider AGGTGGAA, for which the binding signal was -0.0285 E-score.

AGCCTCCC registered a binding signal of -0.325 E-score.

Take AAGTTCGG: the binding signal stood at 0.0724 E-score.

As to AACGCACT, the binding signal turned out to be 0.0323 E-score.

As to AGCGTTCC, the binding signal is -0.0101 E-score.

Sequence CTGCGTCA displayed a binding signal of -0.201 E-score.

GAGTTGAA: the binding signal turned out to be 0.00685 E-score.

GCTGCCGA displayed a binding signal of -0.27 E-score.

Consider GAGAGGCA, for which the binding signal was -0.321 E-score.

As to ATGCTTGG, the binding signal was 0.0139 E-score.

Turning to CACAGAAA, the binding signal is 0.124 E-score.

For the sequence CTACACCA, the binding signal amounted to 0.135 E-score.

Take AATGAGCG: the binding signal was -0.182 E-score.

The sequence ATTTTTGG showed a binding signal of 0.214 E-score.

As for CCCACAGG, the binding signal is -0.304 E-score.

Sequence ACTCAGGC showed a binding signal of -0.102 E-score.

ATAAAAAG displayed a binding signal of 0.157 E-score.

ATAAGTGA returned a binding signal of 0.123 E-score.

Sequence GGTCCCAA yielded a binding signal of -0.129 E-score.

Take CCTGGACA: the binding signal is -0.0802 E-score.

As for CAACCCCG, the binding signal was -0.331 E-score.

Sequence GTTTCTTA returned a binding signal of 0.226 E-score.

In turn, ACTGCAGG showed a binding signal of -0.114 E-score.

In the case of CGATGTAA, the binding signal was found to be 0.000585 E-score.

As for CATGTGGA, the binding signal turned out to be 0.072 E-score.

In turn, AACAGAAC returned a binding signal of -0.0552 E-score.

Sequence GAGAGATC registered a binding signal of 0.0196 E-score.

GATGGTTA showed a binding signal of 0.0373 E-score.

As to ATAGCGAT, the binding signal worked out at 0.0956 E-score.

In the case of CCTGAACA, the binding signal is -0.0722 E-score.

Take TGCCTGAA: the binding signal was -0.0566 E-score.

In the case of AAACAAAC, the binding signal was -0.268 E-score.

As for CAGACCAG, the binding signal is -0.334 E-score.

With CTCGCGTC, the binding signal was -0.369 E-score.

Consider ACGGCTGA, for which the binding signal was -0.0768 E-score.

For the sequence AACCGAAT, the binding signal is 0.0509 E-score.

Sequence ATCTCCAC came in with a binding signal of 0.0613 E-score.

In the case of AGTCATCA, the binding signal was -0.0381 E-score.

GGAATTGA: the binding signal came to 0.0869 E-score.

For CCGAGTCG, the binding signal was -0.123 E-score.

As for ACTGCCAA, the binding signal was -0.204 E-score.

As to AAATGTTG, the binding signal worked out at 0.0761 E-score.

In turn, GGACGGCC registered a binding signal of -0.334 E-score.

On to CGTGCCCA, for which the binding signal was -0.347 E-score.

With GCAACTCA, the binding signal is -0.177 E-score.

GAGAACTA: the binding signal came out at 0.326 E-score.

ATCGATCA came in with a binding signal of 0.205 E-score.

Regarding AGTATAAC, the binding signal is 0.214 E-score.

As for GGAAGCAA, the binding signal was -0.0536 E-score.

CATTGATC registered a binding signal of 0.00852 E-score.

Sequence ATCTGCCG had a binding signal of 0.0903 E-score.

Consider GCGATTAC, for which the binding signal was -0.0455 E-score.

For the sequence AATTCTCG, the binding signal came to 0.191 E-score.

On to CTCGTGAC, for which the binding signal was -0.151 E-score.

Take ACCCCTCA: the binding signal was -0.332 E-score.

Regarding CGTTTTGA, the binding signal is -0.0508 E-score.

As to CTGTTGCA, the binding signal was -0.00274 E-score.

The sequence TAGATACA came in with a binding signal of 0.316 E-score.

In the case of AACCGTCG, the binding signal was -0.0152 E-score.

Turning to CGAGTAAG, the binding signal was -0.156 E-score.

For CAATAGCA, the binding signal was 0.101 E-score.

Turning to ATCACTGG, the binding signal was -0.0489 E-score.

GCAGATCA displayed a binding signal of -0.0662 E-score.

In turn, CGTCCCGC showed a binding signal of -0.238 E-score.

Take CAAGCGTA: the binding signal is -0.175 E-score.

Turning to ATCAACCA, the binding signal stood at 0.0381 E-score.

Consider AGTGAAGG, for which the binding signal is -0.267 E-score.

Consider GCTAATAA, for which the binding signal came to 0.0777 E-score.

With GGGAACGA, the binding signal is -0.163 E-score.

As for CGATCTAA, the binding signal was -0.00615 E-score.

ATGCTATC: the binding signal stood at 0.208 E-score.

For TGATAGCA, the binding signal is 0.263 E-score.

Regarding CCAACAGC, the binding signal is -0.1 E-score.

Regarding AACAACAA, the binding signal was 0.0134 E-score.

For AGCAGCTG, the binding signal is -0.25 E-score.

Take GTCTCTGA: the binding signal is -0.0376 E-score.

With GTAACTCA, the binding signal stood at 0.22 E-score.

The sequence AGAAATCC registered a binding signal of 0.0902 E-score.

The sequence AATACTCC displayed a binding signal of 0.254 E-score.

ATTAGATC gave a binding signal of 0.293 E-score.

The sequence AGACCGCC gave a binding signal of -0.271 E-score.

TATCGGGA yielded a binding signal of 0.167 E-score.

As for CCGCGGAC, the binding signal was -0.169 E-score.

ACAGAACC: the binding signal was -0.171 E-score.

Sequence AAGTGGGC returned a binding signal of -0.172 E-score.

As to CTGATATC, the binding signal was found to be 0.0327 E-score.

Turning to CACAGCAC, the binding signal is -0.155 E-score.

In turn, CGCTAGCA registered a binding signal of -0.0113 E-score.

For CAATCCAG, the binding signal came to 0.0683 E-score.

Sequence GCCATGGC gave a binding signal of -0.269 E-score.

CGAGCCCA yielded a binding signal of -0.227 E-score.

The sequence CCGTTAGA gave a binding signal of -0.0963 E-score.

CATGAGGC: the binding signal is -0.198 E-score.

ATAGAACG came in with a binding signal of 0.11 E-score.

AAACGTGA displayed a binding signal of 0.144 E-score.

As for AGACAGGC, the binding signal is -0.143 E-score.

Sequence CAGTCGCG came in with a binding signal of -0.187 E-score.

Take CTCTGTGA: the binding signal turned out to be 0.00234 E-score.

CAAGACGA: the binding signal is -0.0692 E-score.

Sequence CAAAGGAC had a binding signal of -0.116 E-score.

As for GTGGTGGA, the binding signal is -0.132 E-score.

On to AGCTATCG, for which the binding signal stood at 0.224 E-score.

As for TCTCCAAA, the binding signal came to 0.089 E-score.

The sequence AAATGTAT yielded a binding signal of 0.281 E-score.

CTGAAAGC had a binding signal of -0.133 E-score.

Take AGAGTAGA: the binding signal is 0.0878 E-score.

In the case of AAGCCGAG, the binding signal was -0.0966 E-score.

For the sequence CGTTAATC, the binding signal was -0.0865 E-score.

For CAGGTGGA, the binding signal is -0.213 E-score.

In the case of CGATACCA, the binding signal was -0.0203 E-score.

The sequence CTAGCGAC yielded a binding signal of -0.128 E-score.

In the case of AGAACCAT, the binding signal was determined as 0.144 E-score.

In turn, CTCCCAAC yielded a binding signal of -0.0944 E-score.

GGTAGATA gave a binding signal of 0.451 E-score.

In turn, ACCTCACG returned a binding signal of -0.0956 E-score.

Sequence AGCGTACC returned a binding signal of -0.18 E-score.

The sequence CCATATAA had a binding signal of 0.229 E-score.

Regarding CAGGTAAG, the binding signal is -0.187 E-score.

TCTCCTCA returned a binding signal of -0.207 E-score.

As to AAGCATGG, the binding signal is -0.206 E-score.

Turning to CGTGTATA, the binding signal is 0.231 E-score.

As to ACCACGGG, the binding signal worked out at 0.0041 E-score.
